Assay results: PubChem BioAssay AID1030 (National Center for Advancing Translational Sciences (NCATS), 2008)
Screen size: about 220,000 compounds; about 16,000 (7.3%) were called active. Inconclusive results, whose numbers are uncertain, are shown with a selection of clear calls. The call rests on the fitted dose curve; in most records, active means well fitted inhibition curve with a large enough effect (not every such curve was filed as active); inconclusive means small, poorly fitted or top-dose-only effect, or another doubt; inactive means no such curve, though single readings can be large or run the other way. Potencies of inconclusive entries are left out as doubtful fits.

biological target: Aldehyde dehydrogenase 1A1 (Homo sapiens) (UniProt P00352); assay: qHTS Assay for Inhibitors of Aldehyde Dehydrogenase 1 (ALDH1A1); settings: Purified ALDH1A1, NADH fluorescence, propionaldehyde substrate; series mostly up to 75.3 µM
Potency means the concentration at half of the fitted maximal effect; tags describe the fitted curve by direction and shape.

Sequence of UniProt P00352 (P00352 whole entry, looked up): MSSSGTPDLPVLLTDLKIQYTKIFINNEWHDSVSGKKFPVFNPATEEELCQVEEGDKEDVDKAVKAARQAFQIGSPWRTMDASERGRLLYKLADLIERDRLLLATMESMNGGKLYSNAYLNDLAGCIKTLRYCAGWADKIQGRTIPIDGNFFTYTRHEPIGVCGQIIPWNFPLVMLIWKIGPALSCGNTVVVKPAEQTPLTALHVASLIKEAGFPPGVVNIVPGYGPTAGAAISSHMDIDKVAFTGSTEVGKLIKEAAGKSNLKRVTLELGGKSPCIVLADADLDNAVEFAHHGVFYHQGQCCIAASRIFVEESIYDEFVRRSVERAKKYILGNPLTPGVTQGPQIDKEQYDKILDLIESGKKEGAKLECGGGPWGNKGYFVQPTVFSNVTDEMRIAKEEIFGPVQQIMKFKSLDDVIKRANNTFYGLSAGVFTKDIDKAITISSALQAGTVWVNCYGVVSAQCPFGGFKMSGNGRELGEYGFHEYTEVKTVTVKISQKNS

| Structure (SMILES) | Potency |
| --- | --- |
| COc1ccc(NC(=S)NCCc2ccc(Cl)cc2)c(OC)c1 | inconclusive [inhibitor, partial curve, poor fit] |
| COC(=O)C(C)(C)ONC(=O)Nc1ccccc1Br | inactive |
| COc1ccc2[nH]c(=O)c(CN(Cc3cccs3)C(=S)Nc3cccc(C)c3)cc2c1 | inconclusive [inhibitor, single point] |
| Cc1ccc(/C=N\NC(=O)C2CC(=O)N(c3ccccc3)C2)o1 (stereo not given) | inactive |
| CCN1C(=O)C(O)(CC(=O)c2cc(C)ccc2C)c2ccccc21 (stereo not given) | inconclusive [inhibitor, single point] |
| O=C(Nc1ccc(CN2CCOCC2)cc1)c1ccc(N2CCCC2)c([N+](=O)[O-])c1 | active: 11.2 µM |
| O=[N+]([O-])c1cccnc1-n1cnc2ccccc21 | inconclusive [inhibitor, single point] |
| CCN1CCN(C(=S)c2ccc(OC)cc2)CC1 | inactive |
| CCC(=O)Nc1ccc(C(=O)CSc2nnc(-c3cccnc3)o2)cc1 | inconclusive [inhibitor, partial curve] |
| Cc1[nH]c2ccccc2c1C(=O)COC(=O)c1ccc2c(=O)n3c(nc2c1)CCC3 | inactive |
| Cn1c(=O)[nH]c(=O)c2c1nc(CN1CCOCC1)n2CCc1ccccc1 | inconclusive [inhibitor, single point] |
| Nc1ccc(C(=O)N/N=C\C=C\c2ccc([N+](=O)[O-])cc2)cc1 | inactive |
| CCOC(=O)c1c(CSC(=N)N)n(-c2ccc(Br)cc2)c2cc(Br)c(OC(C)=O)cc12 | inconclusive [inhibitor, single point] |
| CCN1CCc2c(C#N)c(N3CCOCC3)nc(N3CCOCC3)c2C1 | inconclusive [inhibitor, single point] |
| Cc1oc(-c2cccc(Cl)c2)nc1CN1CCCC(C(=O)NC(C)c2ccc3c(c2)OCCO3)C1 (stereo not given) | inconclusive [inhibitor, partial curve] |
| COc1ccccc1CNC(=O)C1CC(=O)N(c2ccc(C)c(C)c2)C1 (stereo not given) | active: 6.31 µM |
| Cc1ccc(C)c(NC(=O)/C(C#N)=C/c2cn(CC(=O)NCc3ccco3)c3ccccc23)c1 | inconclusive [inhibitor, single point] |
| CC(=O)NCC(=O)OCC(=O)Nc1ccc(C(C)=O)cc1 | active: 22.4 µM |
| Cc1ncc(CN2CCCC(CCC(=O)NCc3ccc(F)c(F)c3)C2)s1 (stereo not given) | inactive |
| Cc1cccc(NC(=O)CSc2nc(C)c(CC(=O)c3ccc(Br)cc3)c(C)c2C#N)c1C | inactive |
